{"source": "PubChem BioAssay AID1508642", "about": "(National Center for Advancing Translational Sciences (NCATS), 2021)", "note": "The whole screen tested about 43,000 compounds, of which about 200 (0.47%) were called active. Not shown: some 12% with an inconclusive outcome. The call rests on the fitted dose curve; in most records, active means well fitted cell-killing curve with a large enough effect; inconclusive means small, poorly fitted or top-dose-only effect, or effect the other way; inactive means flat fitted curve, though single readings scatter. This is one part of the list. On the % scale 0 is the no-effect control and ±100 the full control effect.", "data": [{"assay": "Cell viability qHTS assay in S16 Pmp22-F2sN cells; further: nearly all actives have a fitted effect of over 65% in size", "conditions": "S16 Pmp22-F2sN Schwann cells viability, CellTiter-Glo, 24 h; series mostly up to 57.5 µM; activity change, negative = cytotoxicity: at the top concentration", "outline": "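Viability was measured by CellTiter-Glo luminescence (15 min, room temperature). This followed 24 h at 37 °C of compound exposure (23 nL pin transfer) in S16 Pmp22-F2sN Schwann cells, 500-1,000 per well.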", "values": [{"smiles": "COc1ccc(Nc2ncc(C(=O)Nc3cccc(OC)c3)c3ccccc23)cc1", "activity change, negative = cytotoxicity": "inactive: 17.8%"}, {"smiles": "Cc1ccc(Cl)cc1N(C)C(=O)c1sc2nc3n(c(=O)c2c1C)CCCC3", "activity change, negative = cytotoxicity": "inactive: -3.81%"}, {"smiles": "COc1ccc(NC(=O)c2ccco2)cc1NC(=O)c1cccc(C)c1OC", "activity change, negative = cytotoxicity": "inactive: 5.34%"}, {"smiles": "Cc1ccc(NC(=O)NC(C)c2c(-n3cccc3)sc(C)c2C)c(C)c1", "note": "(stereo unspecified)", "activity change, negative = cytotoxicity": "inactive: -9.48%"}, {"smiles": "Cc1ccc(SCC(=O)Nc2ccc(O)c(-c3nc4cc(C)ccc4o3)c2)cc1", "activity change, negative = cytotoxicity": "inactive: -9.69%"}, {"smiles": "Cc1ccc2c(CN3CCN(c4ccc(Cl)cc4)CC3)cc(=O)oc2c1", "activity change, negative = cytotoxicity": "inactive: -6.11%"}, {"smiles": "Cc1ccc(CNC(=O)CCCCCn2c(=O)c3sccc3n(CC(=O)C(C)(C)C)c2=O)cc1", "activity change, negative = cytotoxicity": "inactive: -0.877%"}, {"smiles": "O=C(Nc1ccccc1)C1CCN(S(=O)(=O)c2ccc3c(c2)CCCN3C(=O)C2CCC2)CC1", "activity change, negative = cytotoxicity": "inactive: -24.1%"}, {"smiles": "Cc1ccc(Cn2c(SCc3ccc(C(=O)O)cc3)nc3cccnc32)cc1", "activity change, negative = cytotoxicity": "inactive: -0.621%"}, {"smiles": "COc1cccc(CC(=O)Nc2c(C(=O)N3CCN(c4ccccc4)CC3)oc3ccccc23)c1", "activity change, negative = cytotoxicity": "inactive: 1.62%"}, {"smiles": "O=C(Cn1c(=O)n(Cc2ccco2)c(=O)c2sc3ccccc3c21)Nc1ccc(F)cc1F", "activity change, negative = cytotoxicity": "inactive: 19.8%"}, {"smiles": "COc1ccc(C(=O)N(Cc2ccco2)Cc2ccccc2F)cc1Cl", "activity change, negative = cytotoxicity": "inactive: -24.5%"}, {"smiles": "COc1ccc(-c2cc(C(F)(F)F)c(C#N)c(SCC(=O)Nc3cccc(C)c3)n2)cc1", "activity change, negative = cytotoxicity": "inactive: -0.72%"}, {"smiles": "CCN(CCCNC(=O)CN1N=C(c2ccccc2)CCC1=O)c1cccc(C)c1", "activity change, negative = cytotoxicity": "inactive: -3.74%"}, {"smiles": "CCC(C)n1c(=O)c2sccc2n2c(CCCC(=O)Nc3ccc(F)cc3)nnc12", "note": "(stereo unspecified)", "activity change, negative = cytotoxicity": "inactive: 3.84%"}, {"smiles": "CSc1ncc(Cl)c(C(=O)Nc2c(C(=O)c3ccc(C)cc3)oc3ccccc23)n1", "activity change, negative = cytotoxicity": "inactive: -10.4%"}, {"smiles": "CCOC(=O)c1ccc(NC(=O)c2noc3c2CCCC3)cc1", "activity change, negative = cytotoxicity": "inactive: 1.54%"}, {"smiles": "O=C1NC(NS(=O)(=O)c2ccccc2)(C(F)(F)F)C(=O)N1CCc1ccccc1", "note": "(stereo unspecified)", "activity change, negative = cytotoxicity": "inactive: -7.45%"}, {"smiles": "CCOc1ccc(-c2cc3nc(C4CCN(C(=O)OC(C)(C)C)CC4)c(C(=O)Nc4cccc(Cl)c4C)cn3n2)cc1", "activity change, negative = cytotoxicity": "inactive: -2.85%"}, {"smiles": "Cn1cc(CCCC(=O)NCc2ccc(F)cc2)c2ccccc21", "activity change, negative = cytotoxicity": "inactive: 17.1%"}, {"smiles": "Brc1ccc(-c2cn3cc(Cc4ccccc4)sc3n2)cc1", "activity change, negative = cytotoxicity": "inactive: 10.9%"}, {"smiles": "CC1CCN(S(=O)(=O)c2ccc3[nH]ccc3c2)CC1", "activity change, negative = cytotoxicity": "inactive: -16.8%"}, {"smiles": "O=S(=O)(NCCc1nnc2ccc(SCc3cccc(Cl)c3)nn12)c1ccccc1", "activity change, negative = cytotoxicity": "inactive: -11.9%"}, {"smiles": "COc1ccc(Cn2c(CNC(=O)Cc3ccc(OC)c(OC)c3)nc3cccnc32)cc1", "activity change, negative = cytotoxicity": "inactive: 2.16%"}, {"smiles": "CCN(c1ccccc1)c1ncnc2c1cnn2-c1ccc(OC)cc1", "activity change, negative = cytotoxicity": "inactive: -1.11%"}, {"smiles": "Cc1ccc2[nH]c3c(=O)n(CC(=O)N4CCN(c5ccccc5F)CC4)ncc3c2c1", "activity change, negative = cytotoxicity": "inactive: 16%"}, {"smiles": "Cc1cc(=O)[nH]c2nnc(SCc3cccc(C(F)(F)F)c3)n12", "activity change, negative = cytotoxicity": "inactive: -12%"}, {"smiles": "O=C(CSc1nccn1Cc1ccco1)Nc1ccc(OC(F)(F)F)cc1", "activity change, negative = cytotoxicity": "inactive: -0.342%"}, {"smiles": "CCOc1ccc(NC(=O)Cn2cc(C(=O)C3CC3)c3ccccc32)cc1", "activity change, negative = cytotoxicity": "inactive: 10.2%"}, {"smiles": "COc1ccc(C(=O)Nc2ccc(-c3nc4cc(C)ccc4o3)c(O)c2)cc1", "activity change, negative = cytotoxicity": "inactive: 10.2%"}, {"smiles": "Cc1ccc2c(CNCCc3ccco3)c(C(=O)O)n(Cc3ccc(F)cc3)c2c1", "activity change, negative = cytotoxicity": "inactive: 0.133%"}, {"smiles": "CCOc1ccc(CN(CCc2ccc3c(c2)OCO3)Cc2cc(OC)cc(OC)c2)cc1", "activity change, negative = cytotoxicity": "inactive: -4.48%"}, {"smiles": "COc1ccc(NC(=O)CCCc2nnc3n(C(C)C)c(=O)c4sccc4n23)cc1Cl", "activity change, negative = cytotoxicity": "inactive: 2.26%"}, {"smiles": "COc1ccccc1N1CCN(c2ncc3c(n2)CCN(Cc2ccccc2C)C3)CC1", "activity change, negative = cytotoxicity": "inactive: 8.39%"}, {"smiles": "Cc1nc2ccc(S(=O)(=O)NCC(=O)NCc3ccc(Cl)cc3)cc2s1", "activity change, negative = cytotoxicity": "inactive: 0.769%"}, {"smiles": "Cc1ccc(OCC(=O)OCc2cc(=O)n3ccsc3n2)cc1C", "activity change, negative = cytotoxicity": "inactive: 2.12%"}, {"smiles": "Cc1nn(-c2ccccc2)c(-n2cccc2)c1C(=O)NCCCN1CCN(c2ccccc2F)CC1", "activity change, negative = cytotoxicity": "inactive: -6.88%"}, {"smiles": "COc1ccc(OC(=O)c2cc(-c3ccc4c(c3)OCCO4)on2)cc1", "activity change, negative = cytotoxicity": "inactive: 0.952%"}, {"smiles": "Cc1ccc(C)c(NC(=O)CSc2cn(CC(=O)N3CCCCC3)c3ccccc23)c1", "activity change, negative = cytotoxicity": "inactive: -19.1%"}, {"smiles": "CCOc1ccc(NC(=O)Cn2c(=O)nc(-c3ccccc3)c3ccccc32)cc1", "activity change, negative = cytotoxicity": "inactive: -3.68%"}, {"smiles": "CC(C)c1ccc(NC(=O)Cn2nnc(C(=O)NCCc3ccccc3)c2N)cc1", "activity change, negative = cytotoxicity": "inactive: 1.38%"}, {"smiles": "COc1cc(Cl)c(NC(=O)CN2C(=O)c3cccnc3Sc3ccccc32)c(OC)c1", "activity change, negative = cytotoxicity": "inactive: 5.45%"}, {"smiles": "COc1ccc(NC(=O)C(Cc2ccccc2)NS(=O)(=O)c2ccc3c(c2)oc(=O)n3C)c(OC)c1", "note": "(stereo unspecified)", "activity change, negative = cytotoxicity": "inactive: -14.8%"}, {"smiles": "Cc1cccc2nc(-c3ccc(Cl)s3)c(Nc3ccc4c(c3)OCCO4)n12", "activity change, negative = cytotoxicity": "inactive: -5.31%"}, {"smiles": "Cc1nc(N2CCOCC2)c2c(C(=O)N3CCN(c4cccc(C(F)(F)F)c4)CC3)c(C)oc2n1", "activity change, negative = cytotoxicity": "inactive: -1.78%"}, {"smiles": "CC(C)Oc1ccc(C(=O)N2CCC(c3nc4ccccc4s3)CC2)cc1", "activity change, negative = cytotoxicity": "inactive: 16.7%"}, {"smiles": "Cc1ccc(SCCNC(=O)CN(c2cccc(C)c2C)S(C)(=O)=O)cc1", "activity change, negative = cytotoxicity": "inactive: 28.9%"}, {"smiles": "COc1cc(C(=O)Nc2ccc(-c3nc4cc(C)c(C)cc4o3)cc2)cc(OC)c1OC", "activity change, negative = cytotoxicity": "inactive: 0.51%"}, {"smiles": "CCOC(=O)c1ccc(NC(=O)CCc2c(C)nc3cc(-c4ccc(OC)cc4OC)nn3c2C)cc1", "activity change, negative = cytotoxicity": "inactive: 0.634%"}, {"smiles": "CCC(C)NC(=O)Cn1c(=O)n(-c2cc(OC)cc(OC)c2)c(=O)c2ccccc21", "note": "(stereo unspecified)", "activity change, negative = cytotoxicity": "inactive: 19.9%"}, {"smiles": "CC(=O)Nc1ccc(S(=O)(=O)N2CCC(n3c(C)nc4cccnc43)CC2)cc1", "activity change, negative = cytotoxicity": "inactive: -16.9%"}, {"smiles": "CCOC(=O)c1c(C)oc2nc(C)nc(NCCc3ccc(OCC)cc3)c12", "activity change, negative = cytotoxicity": "inactive: -26.6%"}, {"smiles": "COc1ccc(C(=O)NCC(=O)OCc2cc(=O)n3nc(C4CCCCC4)sc3n2)cc1", "activity change, negative = cytotoxicity": "inactive: -13.7%"}, {"smiles": "Cc1ccccc1-c1nc(CS(=O)(=O)CC(=O)NCCCN2CCN(C)CC2)c(C)o1", "activity change, negative = cytotoxicity": "inactive: -6.55%"}, {"smiles": "COc1ccc(-n2nnc(-c3nc(-c4ccc5c(c4)OCO5)no3)c2C)cc1Cl", "activity change, negative = cytotoxicity": "inactive: 5.41%"}, {"smiles": "COc1ccc(NC(=O)CSc2nncn3c2cc2occc23)c(OC)c1", "activity change, negative = cytotoxicity": "inactive: 1.37%"}, {"smiles": "CCc1ccccc1NC(=O)Cn1c(=O)n(-c2ccccc2)c(=O)c2oc3ccccc3c21", "activity change, negative = cytotoxicity": "inactive: 10.6%"}, {"smiles": "O=C(Cn1c(=O)n(Cc2ccco2)c(=O)c2ccccc21)Nc1cccc(F)c1", "activity change, negative = cytotoxicity": "inactive: 18.3%"}, {"smiles": "COc1ccc(NC(=O)Cn2c(=O)n(Cc3ccco3)c(=O)c3sc4ccccc4c32)cc1OC", "activity change, negative = cytotoxicity": "inactive: 3.17%"}, {"smiles": "CCOc1cc(C#N)c(NC(=O)c2ccc(OC)c(S(=O)(=O)N3CCCCC3)c2)cc1OCC", "activity change, negative = cytotoxicity": "inactive: 4.65%"}, {"smiles": "CC(=O)c1ccc(NC(=O)c2cnc(N3CCCC3)nc2C)cc1", "activity change, negative = cytotoxicity": "inactive: -5.88%"}]}]}
